Measurements: PMC12136788
The list shows a part of the results.

T1: UNK ZnF1-3 (human, UniProt Q9C0B0 31-174)
T1 sequence: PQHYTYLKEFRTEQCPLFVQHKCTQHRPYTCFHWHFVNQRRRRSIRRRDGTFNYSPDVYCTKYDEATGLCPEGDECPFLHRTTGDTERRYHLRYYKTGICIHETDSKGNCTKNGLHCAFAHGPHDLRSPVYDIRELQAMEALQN

B1: 60917833_60919184_1730_CDS_ENSMUSG00000021987_ENSMUST00000022563|mouse|control|control (ssRNA)
RNA: GGGAGUUCUACAGUCCGACGAUCCAGGGCAGGUGAUUCAGGGUGGACAGCAUGCAGCAACUCCUUCGUUAGGAUGCCAUUUUUGCAUUGCUUAAUUUUAGCCUCGAGGUCUUUAAUGUCUUCCUCUAACUGCUUGCUUUGCUCCAACAGAGGAUUGAGCAUCA
B2: 76672510_76672630_5891_3pUTR_ENSG00000089916_ENST00000261530|human|control|control (ssRNA)
RNA: GGGAGUUCUACAGUCCGACGAUCUCUACCACUUGCAUUUAGUUCUGAGUGAUGGAACUCACCAUUUUCCUCACCCUUUCCCUCUGUACCAGUUUUCUUCUAAGGGGCGAAAUUGUUGCCAGUGACAGUAACUCUGUGACCUUUCAACAGAGGAUUGAGCAUCA
B3: chr4:123027775:123027776:-_ENSMUSG00000028649_ENSMUST00000154824|mus_hu|motif|central (ssRNA)
RNA: GGGAGUUCUACAGUCCGACGAUCUUAUCUUGCUGAGAUAGCAAGUCAAGUUUAUAAAGAAGAUGCAUUUAGGAAUAAUCCGGAAAGAUAAAGCAGGUUUACAACCCUGCACCGCGCAGAAACCCUAUUAAUAGGCUUUUUUUUCAACAGAGGAUUGAGCAUCA
B4: chr2:20138125:20138126:-_ENSG00000118965_ENST00000281405|hu_hu|FALSE|FALSE (ssRNA)
RNA: GGGAGUUCUACAGUCCGACGAUCUUUAAUUCCAACCUUCUCAAUCAGUGCUCGGCUAUCUCGCAGAGACCGAAUCUCAAAGUUAAUUAGGUAAUCCUUGUUUGGAUGUUCUGGAUCCUUUAAUAUCUCAUCCAAAAGAACAGACAACAGAGGAUUGAGCAUCA
B5: chr1:229631779:229631780:-_ENSG00000069248_ENST00000261396|hu_mus|FALSE|FALSE (ssRNA)
RNA: GGGAGUUCUACAGUCCGACGAUCCAGUUCCCAUUUGCUGAUGUUUGAACUCGUCAGGGUGUAGAAACUUGAUCCUCCUCUGUCCCACAGAACACUGGCCAGCAUGAGGUCACUAGUAGGGGACAGAAUCCCGAAAAGGGAAGACAACAGAGGAUUGAGCAUCA
B6: chr3:130449232:130449233:-_ENSG00000196455_ENST00000356763|hu_hu|FALSE|FALSE (ssRNA)
RNA: GGGAGUUCUACAGUCCGACGAUCCUCAUCUAUUUCUUCAUUAUUGGGGUCAUUUUCCAUAUUAAGAUUUUUUAACUGUACUAAUUCCAGGAAUCUCAGAGCUGUUUCUGCCAGCAGAGCUAUGUUUUCAGCAUAGGCUAGUCUCAACAGAGGAUUGAGCAUCA
B7: chr1:51737530:51737531:+_ENSG00000123091_ENST00000242719|perfect_dup|FALSE|FALSE (ssRNA)
RNA: GGGAGUUCUACAGUCCGACGAUCACUGGUUUUCAAGCAUAGAGCCAGCCCCAACGAUAAUAAUACACUAUUUAAAAAGACCUAAGGCAAUGAAUUCCAUUUCCAAUGGAAAAAAAGAACUGUGCAAACAAGCUUAAAACUACUCAACAGAGGAUUGAGCAUCA
B8: chr17:15081082:15081083:+_ENSMUSG00000050088_ENSMUST00000052691|mus_hu|FALSE|FALSE (ssRNA)
RNA: GGGAGUUCUACAGUCCGACGAUCUCCCAGAGUGUGGUCAACGACUCAAAAGAGAAUUUCAAGUACCAGUUUCAAAAUGCUAAUUAAUAUCGUCCAGAGAACAGAUUCCUCCUCUUGCGAGGCGUCUUCCGGGGCACCAGCGUGCAACAGAGGAUUGAGCAUCA
B9: chr22:19452774:19452775:-_ENSG00000070010_ENST00000399523|hu_hu|hu_hu_hu_mus_False|18_78 (ssRNA)
RNA: GGGAGUUCUACAGUCCGACGAUCCUUCUCAUUGUAGUUGAUAGCAAUCACAUCUCCGGUGGUCAGACAGGCGAAGUUUCUCAAUGCAUUUUCUAAUACCGCUUUAGGGUUGGUAAUGUCCAGGAAGUCUGGGCUCUGAGGCUGCAACAGAGGAUUGAGCAUCA
B10: chr10:33190432:33190433:-_ENSG00000150093_ENST00000302278|hu_mus|motif|central (ssRNA)
RNA: GGGAGUUCUACAGUCCGACGAUCUACAUUUUCCAAACCUGCAUGUGAAUAAAACCCUGGCCACAGAGCCCCAAAACGGCCCGGCUGUGACUAAGAUGCUGCUGCUGUGAGCUUGGUGUUGCAAAAUCCGCCUGAGUAGGAUUCCAACAGAGGAUUGAGCAUCA
B11: chr4:140556289:140556290:+_ENSMUSG00000036622_ENSMUST00000037055|mus_mus|mus_mus_mus_hu_False|18_58 (ssRNA)
RNA: GGGAGUUCUACAGUCCGACGAUCGAUGGAGCUCACCAGGCCCCCUUUUGCCGUGCAGAACCCUGUGCGGGUCACCACUGCUAGCACGUGCGGUCCCACAUAGGCCCGGGCCUGCAAAAUGAGGGUGCCGCAGAAGAGUGUGUGCAACAGAGGAUUGAGCAUCA
B12: chr6:114281168:114281169:-_ENSG00000196591_ENST00000368632|hu_mus|FALSE|FALSE (ssRNA)
RNA: GGGAGUUCUACAGUCCGACGAUCUUCCAUUUUUCGGUAUAAACCAUAAUUUAGCAGCAAGUUAUGAGUCAUCCGGAUUCUAUGAGGCUUCAUGGGAUGACCCUGGCCAUAAUAAUAAUUGCCAAUAUCACCAUCAUAGUAGUACAACAGAGGAUUGAGCAUCA
B13: chr1:23395093:23395094:+_ENSG00000004487_ENST00000356634|perfect_dup|FALSE|FALSE (ssRNA)
RNA: GGGAGUUCUACAGUCCGACGAUCUGCCUGGCCAAGGGAUACAGGUUUAUUAUUGAGGACGUUGAAGUCUAACUGGUGACUAAGGUAAGAAGUGGCUUCUAGCAACCGGUUAAAUUCUUGUUCUACCAUUUCAUCUUUUUCUUUCAACAGAGGAUUGAGCAUCA
B14: chr11:4127340:4127341:+_ENSG00000167325_ENST00000300738|hu_mus|hu_hu_hu_mus_False|68_88 (ssRNA)
RNA: GGGAGUUCUACAGUCCGACGAUCGGCAUAGUCAGGGUGCUUCGUGGUCAAGGUUGCGGCUGUCUCAGCAGCCAAAGUGUCCAGUUCCACUGUGGUGACCCCACUAUAUAGGCCUUGGAUUACUUUCAUGGUGAUCUGAGCAGGCAACAGAGGAUUGAGCAUCA

These binders were tested against T1, UNK ZnF1-3 (assay: nsRBNS (natural sequence RNA bind-n-seq); RBNS binding buffer (assumed for nsRBNS): 25 mM Tris pH 7.5, 150 mM KCl, 3 mM MgCl2, 0.01% Triton X-100, 500 ug/ml BSA, 20 U/ml SUPERase-In, 4 C; UNK is unkempt and MSI1 is Musashi-1; names of the RNAs are library labels; protein concentration not given here; high values mean tight binding).

First: B1
Second: B2
The binding signal of the first is higher: 0.839 enrichment R for the first, 0.607 enrichment R for the second.

Going from B3 to B4, the binding signal rises from 0.647 enrichment R to 0.73 enrichment R.

First: B5
Second: B6
The binding signal of the first is lower: 0.735 enrichment R for the first, 1.06 enrichment R for the second.

Going from B7 to B8, the binding signal falls from 1.34 enrichment R to 1.21 enrichment R.

Going from B9 to B10, the binding signal rises from 0.914 enrichment R to 1.16 enrichment R.

Compared with B11, B12 is lower in binding signal: 1.42 enrichment R for the first, 0.884 enrichment R for the second.

Going from B13 to B14, the binding signal rises from 0.691 enrichment R to 1.04 enrichment R.
